{"source": "the supplement of paper PMC12217912", "parents": {"B1": {"name": "TEV protease; numbered along this chain (parent)", "chain": "MGESLFKGPRDYNPISSSICHLTNESDGHTTSLYGIGFGPFIITNKHLFRRNNGTLVVQSLHGVFKVKDTTTLQQHLVDGRDMIIIRMPKDFPPFPQKLKFREPQREERICLVTTNFQTKSMSSMVSDTSCTFPSGDGIFWKHWIQTKDGQCGSPLVSTRDGFIVGIHSASNFTNTNNYFTSVPKNFMELLTNQEAQQWVSGWRLNADSVLWGGHKVFMVKPEEPFQPVKEATQL"}}, "note": "This is one part of the list. The full chains were built here from the parent and the listed change. Inactive controls read about 0.05.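 Note: Bxb1 expression induced with 0.2% (w/v) L-rhamnose at OD600 near 0.5, cultures sampled hourly, flipped fraction per protease–substrate barcode pair counted by paired-end Illumina sequencing.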"}
{"variants_of": "B1", "assay": "raw area under fraction-flipped curve 0-4 h after induction (AUC4h, not background-subtracted), DNA-recorder readout of cleavage of the substrate (dimensionless); higher = more cleavage of the substrate by the protease variant", "conditions": "temperature: 34 °C; time window: 0-4 h after rhamnose induction", "experimental": "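In vivo DNA recorder in E. coli TOP10(DE3) ΔrhaA at 34 °C. Each TEVp single-site mutant (parent TEVp 0) is paired with a single-site variant of the 7-mer TEVs (canonical ENLYFQ|S). The substrate sits between flexible linkers in a Bxb1-sfGFP-TEVs-SsrA fusion, so cleavage stabilises Bxb1 and speeds flipping of a recombination array, read by NGS. The value is the raw area under the fraction-flipped curve over 0-4 h after rhamnose induction (AUC4h), with ≥20 reads per time point. It is not background-subtracted; inactive controls average about 0.047.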"}
{"variant": "MGESLFKGPRDYNPISSSICHLTNESDGHTTSLYGIGFGPFIITNKHLFRRNNGTLVVQSLHGVFKVKDTTTLQQHLVDGRDMIIIRMPKDFPPFPQKLKFREPQREERICLVTTNFQTKSMSSMVSDTSCTFPSGDGIFWKHWIQTKDGQCGSPLVSTRGGFIVGIHSASNFTNTNNYFTSVPKNFMELLTNQEAQQWVSGWRLNADSVLWGGHKVFMVKPEEPFQPVKEATQL", "note": "[D161G]", "area with substrate ENAYFQS": 0.0598, "area with substrate ENCYFQS": 0.0669, "area with substrate ENDYFQS": 0.0606, "area with substrate ENFYFQS": 0.0491, "area with substrate ENGYFQS": 0.0722, "area with substrate ENHYFQS": 0.0548, "area with substrate ENIYFQS": 0.0894, "area with substrate ENKYFQS": 0.057, "area with substrate ENQYFQS": 0.0608, "area with substrate ENSYFQS": 0.0531, "area with substrate ENTYFQS": 0.0675, "area with substrate ENVYFQS": 0.0653, "area with substrate ENYYFQS": 0.0495}
{"variant": "MGESLFKGPRDYNPISSSICHLTNESDGHTTSLYGIGFGPFIITNKHLFRRNNGTLVVQSLHGVFKVKDTTTLQQHLVDGRDMIIIRMPKDFPPFPQKLKFREPQREERICLVTTNFQTKSMSSMVSDTSCTFPSGDGIFWKHWIQTKDGQCGSPLVSTRDNFIVGIHSASNFTNTNNYFTSVPKNFMELLTNQEAQQWVSGWRLNADSVLWGGHKVFMVKPEEPFQPVKEATQL", "note": "[G162N]", "area with substrate ENAYFQS": 0.0861, "area with substrate ENHYFQS": 0.0484, "area with substrate ENIYFQS": 0.112, "area with substrate ENPYFQS": 0.0618, "area with substrate ENTYFQS": 0.0773}
{"variant": "MGESLFKGPRDYNPISSSICHLTNESDGHTTSLYGIGFGPFIITNKHLFRRNNGTLVVQSLHGVFKVKDTTTLQQHLVDGRDMIIIRMPKDFPPFPQKLKFREPQREERICLVTTNFQTKSMSSMVSDTSCTFPSGDGIFWKHWIQTKDGQCGSPLVSTRDGDIVGIHSASNFTNTNNYFTSVPKNFMELLTNQEAQQWVSGWRLNADSVLWGGHKVFMVKPEEPFQPVKEATQL", "note": "[F163D]", "area with substrate ENAYFQS": 0.0723, "area with substrate ENEYFQS": 0.0566, "area with substrate ENQYFQS": 0.0317}
{"variant": "MGESLFKGPRDYNPISSSICHLTNESDGHTTSLYGIGFGPFIITNKHLFRRNNGTLVVQSLHGVFKVKDTTTLQQHLVDGRDMIIIRMPKDFPPFPQKLKFREPQREERICLVTTNFQTKSMSSMVSDTSCTFPSGDGIFWKHWIQTKDGQCGSPLVSTRDGMIVGIHSASNFTNTNNYFTSVPKNFMELLTNQEAQQWVSGWRLNADSVLWGGHKVFMVKPEEPFQPVKEATQL", "note": "[F163M]", "area with substrate ENAYFQS": 0.0544, "area with substrate ENEYFQS": 0.0591, "area with substrate ENFYFQS": 0.0716, "area with substrate ENIYFQS": 0.101, "area with substrate ENPYFQS": 0.0607, "area with substrate ENSYFQS": 0.0772, "area with substrate ENTYFQS": 0.0535, "area with substrate ENWYFQS": 0.0401}
{"variant": "MGESLFKGPRDYNPISSSICHLTNESDGHTTSLYGIGFGPFIITNKHLFRRNNGTLVVQSLHGVFKVKDTTTLQQHLVDGRDMIIIRMPKDFPPFPQKLKFREPQREERICLVTTNFQTKSMSSMVSDTSCTFPSGDGIFWKHWIQTKDGQCGSPLVSTRDGSIVGIHSASNFTNTNNYFTSVPKNFMELLTNQEAQQWVSGWRLNADSVLWGGHKVFMVKPEEPFQPVKEATQL", "note": "[F163S]", "area with substrate ENAYFQS": 0.0433, "area with substrate ENDYFQS": 0.0496, "area with substrate ENFYFQS": 0.0644, "area with substrate ENMYFQS": 0.0517, "area with substrate ENQYFQS": 0.0567}
{"variant": "MGESLFKGPRDYNPISSSICHLTNESDGHTTSLYGIGFGPFIITNKHLFRRNNGTLVVQSLHGVFKVKDTTTLQQHLVDGRDMIIIRMPKDFPPFPQKLKFREPQREERICLVTTNFQTKSMSSMVSDTSCTFPSGDGIFWKHWIQTKDGQCGSPLVSTRDGFVVGIHSASNFTNTNNYFTSVPKNFMELLTNQEAQQWVSGWRLNADSVLWGGHKVFMVKPEEPFQPVKEATQL", "note": "[I164V]", "area with substrate ENAYFQS": 0.0648, "area with substrate ENIYFQS": 0.0773, "area with substrate ENQYFQS": 0.0574, "area with substrate ENRYFQS": 0.0411, "area with substrate ENVYFQS": 0.103}
{"variant": "MGESLFKGPRDYNPISSSICHLTNESDGHTTSLYGIGFGPFIITNKHLFRRNNGTLVVQSLHGVFKVKDTTTLQQHLVDGRDMIIIRMPKDFPPFPQKLKFREPQREERICLVTTNFQTKSMSSMVSDTSCTFPSGDGIFWKHWIQTKDGQCGSPLVSTRDGFIVEIHSASNFTNTNNYFTSVPKNFMELLTNQEAQQWVSGWRLNADSVLWGGHKVFMVKPEEPFQPVKEATQL", "note": "[G166E]", "area with substrate ENAYFQS": 0.0447, "area with substrate ENCYFQS": 0.0522, "area with substrate ENDYFQS": 0.0434, "area with substrate ENEYFQS": 0.0569, "area with substrate ENGYFQS": 0.0481, "area with substrate ENMYFQS": 0.0593, "area with substrate ENNYFQS": 0.0445, "area with substrate ENQYFQS": 0.0468, "area with substrate ENSYFQS": 0.0471, "area with substrate ENTYFQS": 0.0519, "area with substrate ENWYFQS": 0.0441}
{"variant": "MGESLFKGPRDYNPISSSICHLTNESDGHTTSLYGIGFGPFIITNKHLFRRNNGTLVVQSLHGVFKVKDTTTLQQHLVDGRDMIIIRMPKDFPPFPQKLKFREPQREERICLVTTNFQTKSMSSMVSDTSCTFPSGDGIFWKHWIQTKDGQCGSPLVSTRDGFIVGIHSKSNFTNTNNYFTSVPKNFMELLTNQEAQQWVSGWRLNADSVLWGGHKVFMVKPEEPFQPVKEATQL", "note": "[A170K]", "area with substrate ENAYFQS": 0.0533, "area with substrate ENDYFQS": 0.0778, "area with substrate ENEYFQS": 0.0523, "area with substrate ENKYFQS": 0.0558, "area with substrate ENSYFQS": 0.0489}
{"variant": "MGESLFKGPRDYNPISSSICHLTNESDGHTTSLYGIGFGPFIITNKHLFRRNNGTLVVQSLHGVFKVKDTTTLQQHLVDGRDMIIIRMPKDFPPFPQKLKFREPQREERICLVTTNFQTKSMSSMVSDTSCTFPSGDGIFWKHWIQTKDGQCGSPLVSTRDGFIVGIHSWSNFTNTNNYFTSVPKNFMELLTNQEAQQWVSGWRLNADSVLWGGHKVFMVKPEEPFQPVKEATQL", "note": "[A170W]", "area with substrate ENAYFQS": 0.0621, "area with substrate ENCYFQS": 0.0595, "area with substrate ENDYFQS": 0.057, "area with substrate ENFYFQS": 0.0559, "area with substrate ENIYFQS": 0.0397, "area with substrate ENQYFQS": 0.0651, "area with substrate ENRYFQS": 0.0646, "area with substrate ENSYFQS": 0.0535, "area with substrate ENTYFQS": 0.0589, "area with substrate ENVYFQS": 0.0601}
{"variant": "MGESLFKGPRDYNPISSSICHLTNESDGHTTSLYGIGFGPFIITNKHLFRRNNGTLVVQSLHGVFKVKDTTTLQQHLVDGRDMIIIRMPKDFPPFPQKLKFREPQREERICLVTTNFQTKSMSSMVSDTSCTFPSGDGIFWKHWIQTKDGQCGSPLVSTRDGFIVGIHSAINFTNTNNYFTSVPKNFMELLTNQEAQQWVSGWRLNADSVLWGGHKVFMVKPEEPFQPVKEATQL", "note": "[S171I]", "area with substrate ENAYFQS": 0.064, "area with substrate ENFYFQS": 0.0593, "area with substrate ENIYFQS": 0.0565, "area with substrate ENQYFQS": 0.0416, "area with substrate ENRYFQS": 0.0712, "area with substrate ENSYFQS": 0.0544}
{"variant": "MGESLFKGPRDYNPISSSICHLTNESDGHTTSLYGIGFGPFIITNKHLFRRNNGTLVVQSLHGVFKVKDTTTLQQHLVDGRDMIIIRMPKDFPPFPQKLKFREPQREERICLVTTNFQTKSMSSMVSDTSCTFPSGDGIFWKHWIQTKDGQCGSPLVSTRDGFIVGIHSAYNFTNTNNYFTSVPKNFMELLTNQEAQQWVSGWRLNADSVLWGGHKVFMVKPEEPFQPVKEATQL", "note": "[S171Y]", "area with substrate ENAYFQS": 0.0704, "area with substrate ENCYFQS": 0.0666, "area with substrate ENDYFQS": 0.0728, "area with substrate ENEYFQS": 0.0592, "area with substrate ENMYFQS": 0.0632, "area with substrate ENNYFQS": 0.0441, "area with substrate ENPYFQS": 0.0638, "area with substrate ENQYFQS": 0.0953, "area with substrate ENTYFQS": 0.0581, "area with substrate ENVYFQS": 0.0612, "area with substrate ENWYFQS": 0.0346, "area with substrate ENYYFQS": 0.0571}
